These results are taken from patent US20250243245A1 (priority 2022, published 2025).

One experiment deals with E. coli BL21. Conditions: Table V. From the text: . The bioluminescence assay (22) measures the number of viable microbial cells in culture based on quantitation of the ATP present. Note that ATP is present in live (metabolically active) cells but not in dead cells. […] Note that chimeras AC and CA were identified as the most promising antibacterial agents. Also, note the synergistic effect of the units A and C in chimeras as evidenced by the much lower MIC of the chimera than that of the equimolar mixtures of units A and C.
(§1) Bioluminescence assay: The bioluminescence assay was conducted using the BacTiter-Glo Microbial Cell Viability Assay kit (Promega G8231). Bioluminescence was measured using plate reader. To determine exact CFU values, a standard curve was used to correlate the CFU to bioluminescence. […] To determine IC50% and IC99% values dose-response curves were fitted to Hill equation.

A further experiment concerns ATCC25922. Conditions: Table V; ATCC. How it is done:
These parameters in the energy minimized structures of the chimeras also allowed empirical ranking of the chimeras in terms of antibacterial activity. […] . The MIC assay was performed on a 96-well plate by serial dilution of the peptide in the concentration range 20-0.02 mM and monitoring the growth of the E. coli strain BL21 and (in some cases ATCC25922) by measuring optical density (OD)/cfu. This produced the range of MIC above which no bacterial growth was observed. […] . Tables sIa and sIb show various fragments of the citrus and apple proteins that are homologous to various chimeras shown in Table I, which include: single units on the N/C-terminal of the chimeras, linkers joining them, and the chimera fragments containing the N-terminal, the linker, and the C-terminal as well.
as §1

Molecules are shown by their SMILES. Where a SMILES comes first, the peptide text is derived from it. Bridges are numbered along the chain shown (N, C = ends).

`CC(C)C[C@@H]1NC(=O)[C@H](CCCNC(=N)N)NC(=O)[C@H](CCCNC(=N)N)NC(=O)[C@@H](NC(=O)[C@@H](N)CCCCN)CSSC[C@@H](C(=O)N[C@@H](CCCNC(=N)N)C(=O)NCC(=O)N[C@@H](CCCNC(=N)N)C(=O)N[C@@H](CCC(N)=O)C(=O)O)NC(=O)[C@H](Cc2ccc(O)cc2)NC(=O)[C@H]([C@@H](C)O)NC(=O)[C@H](C(C)C)NC(=O)[C@@H]2CSSC[C@H](NC1=O)C(=O)N[C@@H](Cc1ccc(O)cc1)C(=O)N[C@@H](CCCCN)C(=O)N[C@@H](CCC(N)=O)C(=O)N[C@@H](CCCNC(=N)N)C(=O)N2` [Peptide L19GA, KC2RRLC6YKQRC11VTYC15RGRQ]: in the experiment on E. coli BL21, the IC50 came out at 1000 ± 300 nM and the IC99% was determined as 1.6 ± 0.3 µM. In the experiment with ATCC25922, this molecule displayed an IC50 of 1200 ± 300 nM and an IC99% of 1.3 ± 0.3 µM.

For the molecule `CC[C@H](C)[C@H](NC(=O)[C@H](CCCCN)NC(=O)[C@H](CC(C)C)NC(=O)[C@@H](NC(=O)[C@H](CCCCN)NC(=O)[C@H](CCC(=O)O)NC(=O)[C@@H]1CCCN1C(=O)[C@H](CCC(N)=O)NC(=O)[C@H](CCCNC(=N)N)NC(=O)CNC(=O)[C@H](CCCNC(=N)N)NC(=O)[C@@H]1CSSC[C@H](NC(=O)[C@@H](N)CCCCN)C(=O)N[C@@H](CCCNC(=N)N)C(=O)N[C@@H](CCCNC(=N)N)C(=O)N[C@@H](CC(C)C)C(=O)N[C@H]2CSSC[C@H](NC(=O)[C@H](CCCNC(=N)N)NC(=O)[C@H](CCC(N)=O)NC(=O)[C@H](CCCCN)NC(=O)[C@H](Cc3ccc(O)cc3)NC2=O)C(=O)N[C@@H](C(C)C)C(=O)N[C@@H]([C@@H](C)O)C(=O)N[C@@H](Cc2ccc(O)cc2)C(=O)N1)[C@@H](C)CC)C(=O)N[C@@H](CC(C)C)C(=O)N[C@@H](CCC(=O)O)C(=O)N[C@@H](CO)C(=O)N[C@@H](CC(C)C)C(=O)N[C@@H](CCCCN)C(=O)O` [α/βP-3, KCRRLCYKQRCVTYCRGROPEKILKILESLK] (H-KCRRLCYKQRCVTYCRGRQPEKILKILESLK-OH; disulfide 2-15, 6-11 (inferred); N-terminus and C-terminus assumed), the IC99% in the experiment with E. coli BL21 stood at 2.6 ± 1.0 µM; with ATCC25922 it was 1.0 ± 0.2 µM.
